Source: PubChem BioAssay AID1347073 (National Center for Advancing Translational Sciences (NCATS), 2019)
Among all 45,000 compounds or so, about 200 (0.44%) were called active. Inconclusive results (about 7%) are left out. Calls follow the shape of the dose curve; as a rule, active = well fitted activation curve with a large enough effect; inconclusive = small, poorly fitted or top-dose-only effect; inactive = no such curve, though single readings can be large or run the other way. Some of the results follow.

Assay: qHTS of TDP-43 Inhibitors: NCGC Sytravon Library Screen; also: 0% is about no effect; nearly all actives have a fitted effect of over 55% in size
Details: yeast TDP-43 toxicity rescue, BacTiter-Glo growth, 24 h; series mostly up to 46.1 µM; growth rescue (activation): at the top concentration
Outline: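 TDP-43-expressing yeast, pregrown in raffinose, seeded at OD600 0.02 in galactose medium with compound for 24 hr at 30 deg C. Growth read by BacTiter-Glo luminescence, so rescue of toxicity appears as activation.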

| SMILES | growth rescue (activation) |
| --- | --- |
| COc1ccc(-c2nnn(CC(=O)N(CCCN3CCOCC3)C(C(=O)NC3CCCC3)c3ccco3)n2)cc1 (stereo not given) | inactive: 10.1% |
| CCCCN(C=O)c1c(CC)nc2ccc(C(=O)NCCc3ccccn3)cn12 | inactive: -6.53% |
| Cc1cc(N2CCOCC2)n2cc(-c3ccc(F)cc3)nc2n1 | inactive: -17.1% |
| Cn1c(=O)c2[nH]c(SCC(=O)c3ccc(F)cc3)nc2n(C)c1=O | inactive: 5.62% |
| Cn1c(C(C(=O)NCC2CCCO2)N(CCc2ccccc2)C(=O)Cn2nnc3ccccc32)nc2ccccc21 (stereo not given) | inactive: 0.75% |
| CCOC(=O)c1c(NC(=O)COc2cc(C)ccc2C(C)C)sc(C)c1C | inactive: 1.01% |
| O=C(CCN1C(=O)/C(=C/c2cccs2)SC1=S)Nc1cccc(O)c1 | inactive: -19.4% |
| COCCn1c(SCC(=O)N2CCCCCC2)nnc1-c1ccco1 | inactive: -6.09% |
| CCn1c(Cc2ccc(OC)cc2)nnc1SCc1nc2ccccc2c(=O)[nH]1 | inactive: -19.4% |
| CC(OC(=O)c1ccc2c(c1)S(=O)(=O)c1ccccc1C2=O)C(N)=O (stereo not given) | inactive: 15.6% |
| Cc1nn(CC(=O)Nc2cccc(S(N)(=O)=O)c2)c(C)c1[N+](=O)[O-] | inactive: 9.94% |
| COc1ccc(C(=O)NC2CCN(C(=S)Nc3ccc(C)cc3)CC2)cc1 | inactive: 8.32% |
| CCCCNC(=O)c1nn2c(C(F)(F)F)cc(-c3ccc(OC)cc3)nc2c1Br | inactive: 0.456% |
| CCOc1cc(/C=N/NC(=O)CCc2n[nH]c(=O)[nH]c2=O)ccc1O | inactive: -4.9% |
| CC1(C(=O)NS(=O)(=O)c2ccccc2Cl)CCN1C(=O)CC1CCCC1 (stereo not given) | inactive: 12.6% |
| CCC(=O)N1CCN(c2ccc(NC(=O)COc3cccc(C)c3C)cc2)CC1 | inactive: 18.5% |
| CC(=O)Nc1ccc(N2C(=O)CSC2c2cccc(Br)c2)cc1 (stereo not given) | inactive: -3.77% |
| CCOc1ccc(OCC(=O)Nc2ccc(S(=O)(=O)Nc3cc(C)nc(C)n3)cc2)cc1 | inactive: 16% |
| CN(C)S(=O)(=O)c1cccc(COC(=O)c2ccc3c(c2)OCO3)c1 | inactive: 12.1% |
| Cc1ccc(S(=O)(=O)NCc2ccc(/C=C(/C#N)C(=O)NCc3ccccc3)o2)cc1 | inactive: 17.3% |
| CC1Cc2cc(/C(O)=C3/C(=O)C(=O)N(CCN4CCOCC4)C3c3ccc(C(C)C)cc3)ccc2O1 (stereo not given) | inactive: 9.74% |
| CCOCCCNC(=O)C(Cc1ccccc1)NS(=O)(=O)c1ccc2c(c1)c(=O)n(C)c(=O)n2C (stereo not given) | inactive: -0.799% |

| SMILES | growth rescue (activation) |
| --- | --- |
| N#CC1=C(N)OC2=C(C(=O)CC(c3ccccc3)C2)C1c1ccoc1 (stereo not given) | inactive: -0.494% |
| COCCNc1nc(Oc2ccc(CC(=O)OC)cc2)c2sc(-c3ccccc3)cc2n1 | inactive: 19.5% |
| O=C(Nc1ccc2c(c1)OCO2)c1ccccc1 | inactive: -9.53% |
| COc1ccc(NC(=O)Nc2ccccc2F)cc1Cl | inactive: 1.14% |
| CCOC(=O)C1(Cc2ccccc2C)CCCN(C(=O)c2ccccn2)C1 (stereo not given) | inactive: 25.7% |
| CCN(Cc1ccncc1)C(=O)c1ccccc1NS(=O)(=O)c1ccc(F)cc1 | inactive: -14% |
| O=C(CSc1nnc(-c2ccc(F)cc2)o1)N1CCCCC1 | inactive: 15.3% |
| CCCC(C)NC(=O)COc1ccc(S(=O)(=O)c2ccc(OCC(=O)NC(C)CCC)cc2)cc1 (stereo not given) | inactive: -7.28% |
| CN(C)C(CNC(=O)c1ccc(C2SCCS2)cc1)c1ccccc1 (stereo not given) | inactive: 6.33% |
| CC(C)n1nnnc1SCC(=O)NC1CCCC1 | inactive: -10.3% |
| CC(NC(=S)Nc1ccc(S(N)(=O)=O)cc1)c1ccc2c(c1)OCO2 (stereo not given) | inactive: 4.18% |
| COc1ccccc1C(=O)Oc1ccc2ccc(=O)oc2c1 | inactive: -17.1% |
| O=C(CN1C(=O)NC2(CCOc3ccccc32)C1=O)NCC(F)(F)F (stereo not given) | inactive: -9.77% |
| CC(=O)Nc1ccc2nc(-c3cccn3C)[nH]c2c1 | inactive: 1.58% |
| CCOc1ccc(N(CC(=O)NCc2ccco2)C(=O)CCC(=O)Nc2ccccn2)cc1 | inactive: 4.26% |
| NC(CCc1ccccc1)c1csc(Nc2ccccn2)n1 (stereo not given) | inactive: 11% |
| Cc1ccc(C)c(Cn2nnc3c(=O)[nH]c(C4CCN(S(=O)(=O)c5ccc(S(=O)(=O)N(C)C)cc5)CC4)nc32)c1 | inactive: -4.06% |
| CC(=O)N(c1nc(CCl)cs1)c1c(C)cc(C)cc1C | inactive: 4.53% |
| O=C(NCCCl)Nc1cccc(Br)c1 | inactive: 0.598% |
| COc1ccc(NC(=O)CNC(=O)c2nn(-c3ccc(OC)c(OC)c3)c(=O)c3ccccc23)c(OC)c1 | inactive: 2.99% |
| C=CCn1c(SCC(=O)N(C)CC(=O)Nc2ccc(C)cc2)nnc1-c1ccncc1 | inactive: 9.89% |
| CCC(CC)c1nnc(NC(=O)c2ccc3c(c2)OCO3)s1 | inactive: 13.6% |

| SMILES | growth rescue (activation) |
| --- | --- |
| CC1CN(C(=O)CCS(=O)(=O)c2ccccc2)CC(C)O1 (stereo not given) | inactive: -0.176% |
| Cc1ccc(N(CCC(=O)O)S(=O)(=O)c2ccc(C)cc2)cc1 | inactive: 3.06% |
| Cc1sc2ncn(CC(=O)NCCCN3CC(C)CC(C)C3)c(=O)c2c1S(=O)(=O)N1CC(C)CC(C)C1 (stereo not given) | inactive: -2.52% |
| Cc1cccc(S(=O)(=O)Nc2nc3ccccc3nc2NCc2ccc3c(c2)OCO3)c1 | inactive: 10.2% |
| COc1ccc(CN2CCCN(S(=O)(=O)c3ccc(Br)cc3)CC2)cc1 | inactive: -15.9% |
| C[C@H](NC(=O)Nc1cccc(Br)c1)C(=O)O | inactive: 18.5% |
| COc1ccccc1C(=O)OCCN=C1NS(=O)(=O)c2ccccc21 | inactive: -2.65% |
| CSc1ccc(C(=O)C2CCCN(C(=O)CN3CCOC3=O)C2)cc1 (stereo not given) | inactive: 10.8% |
| CCOP(=O)(NC(c1ccccc1)c1nc2ccccc2[nH]c1=O)OCC (stereo not given) | inactive: 3.35% |
| COc1cc(C(=O)Nc2nc3ccc(S(C)(=O)=O)cc3s2)cc(OC)c1C | inactive: 4.86% |
| CC(OC(=O)c1cc(S(=O)(=O)Nc2ccc(F)cc2)ccc1Cl)C(=O)Nc1ccc2c(c1)OCCO2 (stereo not given) | inactive: 8.97% |
| Cc1ccc(C)c(CN2C(=O)c3ccccc3S(=O)(=O)c3ccc(C(=O)N4CCN(c5ccccc5)CC4)cc32)c1 | inactive: 11.2% |
| COc1ccc(N2CCN(C(=O)c3cc(-c4cc(OC)ccc4OC)nc4ccccc34)CC2)cc1 | inactive: 27.1% |
| CC(C)C(OC(=O)C1=Cc2ccccc2OC1)C(=O)NCC1CCCO1 (stereo not given) | inactive: 0.664% |
| Cc1ccc(/C=C/C(=O)CCC(=O)O)cc1 | inactive: 20.8% |
| COc1ccc(OC)c(/C=C/C(=O)OCC(=O)N2CCCCC2)c1 | inactive: 0.761% |
| Cc1ccc(S(=O)(=O)n2[nH]c(=O)c(CCO)c2C)cc1 | inactive: -9.28% |
| CC(C)Oc1ccc(F)cc1-c1cc(C(=O)NCc2ccc(F)cc2)[nH]n1 | inactive: 14.1% |
| COc1ccc([N+](=O)[O-])cc1NCC(=O)c1ccc(C)cc1 | inactive: -10% |
| CCN(CC)CCCn1c(C)cc2c(c1=O)C(c1cccc(Cl)c1)C(C#N)=C(N)O2 (stereo not given) | inactive: -8.7% |
| COC(=O)c1ccc(/C=C/C(=O)OCC(=O)NCc2cccs2)cc1 | inactive: 2.06% |
